According to the supplement of paper PMC9446081:
About 220 (0.56%) of roughly 39,000 compounds showed activity. The list shows a part of the results.
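Note: static incubation at 37 °C against the wild-type strain, values averaged over two biological replicates.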

These compounds were tested on Escherichia coli K-12 BW25113 (assay: relative growth (OD600 normalised to plate interquartile mean) (fraction); higher = less growth inhibition, active = 0.2 or less). Conditions: 50 µM; LB; incubation time: overnight (16-24 h).
C(=C\c1ccccc1)/CSc1ncnc2c1oc1ccccc12 was tested, and the relative growth was inactive: 1.02.
For O=C(CCCCCCC(=O)N/N=C/[C@H](O)[C@@H](O)[C@H](O)[C@H](O)CO)NO, the relative growth was inactive: 1.01.
For NNC(=O)c1ccncc1.Nc1ccc(C(=O)O)c(O)c1, the relative growth was inactive: 0.943.
For C[C@@H]1CCCCO[C@H](CN(C)C(=O)Nc2ccc(C(F)(F)F)cc2)[C@@H](C)CN([C@@H](C)CO)C(=O)c2cc(NC(=O)Cc3ccccc3)ccc2O1, the relative growth was inactive: 0.98.
In the case of C[C@@H]1CN([C@H](C)CO)C(=O)c2cccc(NS(=O)(=O)c3ccc(Cl)cc3)c2O[C@@H]1CN(C)Cc1ccc(Oc2ccccc2)cc1, the relative growth is reported as inactive: 1.03.
For O=C(c1ccncc1)N1C[C@@H]2[C@H](c3ccccc31)[C@@H](CO)N2C(=O)CN1CCOCC1, the relative growth was inactive: 1.05.
In the case of Cc1ccc(S(=O)(=O)Nc2ccc3c(c2)C(=O)N([C@@H](C)CO)C[C@H](C)[C@H](CN(C)C(=O)CCC(F)(F)F)OCCCC[C@@H](C)O3)cc1, the relative growth is reported as inactive: 0.977.
With CN(C)C(=O)CN1C[C@@H]2CCN(C(=O)NCc3ccccc3)CC[C@H]2S1(=O)=O the relative growth was inactive: 0.997.
Cc1ccc(S(=O)(=O)Nc2ccc3c(c2)C(=O)N([C@@H](C)CO)C[C@@H](C)[C@@H](CN(C)C(=O)Cc2ccccc2)OCCCC[C@H](C)O3)cc1 was tested, and the relative growth was inactive: 1.04.
In the case of CC(C)NC(=O)Nc1ccc2c(c1)C(=O)N([C@H](C)CO)C[C@H](C)[C@H](CN(C)Cc1ccc(Cl)c(Cl)c1)OCCCC[C@@H](C)O2, the relative growth is reported as inactive: 0.947.
With COc1cccc(NC(=O)N2C[C@@H](O)COC[C@@H]3O[C@H](CC(=O)NCCCN4CCOCC4)CC[C@H]32)c1 the relative growth was inactive: 0.996.
With C[C@@H]1CN([C@H](C)CO)C(=O)c2cccc(NC(=O)Nc3ccc4c(c3)OCO4)c2O[C@@H]1CN(C)C(=O)Nc1cccc2ccccc12 the relative growth was inactive: 1.01.
COc1ccc(NC(=O)N(C)C[C@@H]2OCCCC[C@@H](C)Oc3ccc(NC(=O)C4CCCCC4)cc3C(=O)N([C@@H](C)CO)C[C@@H]2C)cc1 was tested, and the relative growth was inactive: 0.984.
With CNC[C@H]1OCCCC[C@H](C)Oc2ccc(NC(=O)CCCN(C)C)cc2C(=O)N([C@H](C)CO)C[C@@H]1C the relative growth was inactive: 1.05.
In the case of Cn1cnc(S(=O)(=O)N2C[C@@H](O)COC[C@H]3O[C@H](CC(=O)NCc4cc(F)cc(F)c4)CC[C@@H]32)c1, the relative growth is reported as inactive: 0.992.
For C[C@H](CO)N1C[C@H](C)[C@H](CN(C)S(=O)(=O)c2cn(C)cn2)Oc2ccc(NC(=O)Nc3ccccc3)cc2CC1=O, the relative growth was inactive: 1.02.
For CNCCCC1c2ccccc2C=Cc2ccccc21.Cl, the relative growth was inactive: 1.1.
For C[C@H]1CCCCO[C@H](CN(C)S(=O)(=O)c2ccc(F)cc2)[C@@H](C)CN([C@@H](C)CO)C(=O)c2cc(NS(C)(=O)=O)ccc2O1, the relative growth was inactive: 1.02.
In the case of C[C@H]1CN([C@@H](C)CO)S(=O)(=O)c2ccc(C#Cc3ccccn3)cc2O[C@H]1CN(C)Cc1ccccc1, the relative growth is reported as inactive: 1.01.
For C[C@@H]1CN([C@@H](C)CO)C(=O)c2cccc(NS(C)(=O)=O)c2O[C@H]1CN(C)C(=O)Nc1ccc(F)cc1, the relative growth was inactive: 0.996.
In the case of COc1ccc(NC(=O)N(C)C[C@H]2Oc3ncc(C#C[C@H](C)O)cc3C(=O)N([C@@H](C)CO)C[C@H]2C)cc1, the relative growth is reported as inactive: 0.972.
In the case of C[C@H](CO)N1C[C@H](C)[C@@H](CN(C)Cc2ccc(C(=O)Nc3ccccc3N)cc2)Oc2c(NS(C)(=O)=O)cccc2C1=O, the relative growth is reported as inactive: 0.991.
For Cc1sc(C)c(CNc2ccccc2)c1CNc1ccccc1, the relative growth was inactive: 1.01.
O=C(C[C@@H]1CC[C@H]2[C@@H](COC[C@@H](O)CN2C(=O)C2CC2)O1)NCc1ccncc1 was tested, and the relative growth was inactive: 1.01.
In the case of O=C(N1CCOCC1)[C@]1(CCS(=O)(=O)c2ccccc2)N=C(c2ccc(OCCCO)cc2)O[C@@H]1c1ccccc1, the relative growth is reported as inactive: 1.02.
COc1ccc(COC[C@]23NC(=O)N[C@H](c4ccccc4O2)[C@H]3COC(=O)NCCCCCC(=O)NO)cc1 was tested, and the relative growth was inactive: 1.01.
For C[C@@H]1CN([C@H](C)CO)C(=O)c2cc(NC(=O)Cn3cnnn3)ccc2O[C@@H]1CN(C)Cc1ccc(C(=O)O)cc1, the relative growth was inactive: 0.985.
For C[C@@H]1CN([C@H](C)CO)C(=O)CCCn2nncc2CO[C@H]1CN(C)C(=O)Nc1cccc2ccccc12, the relative growth was inactive: 0.983.
With O=C(O)c1nn(Cc2ccccc2)nc1C(=O)O the relative growth was inactive: 1.
In the case of C[C@@H]1CCCCO[C@@H](CN(C)Cc2ccc(C(=O)O)cc2)[C@@H](C)CN([C@H](C)CO)C(=O)c2cc(NC(=O)Cc3ccccc3)ccc2O1, the relative growth is reported as inactive: 0.979.
In the case of CC(=O)NCCCC[C@@H]1NC(=O)[C@H]2C[C@@H](C(=O)NCCCCCN)[C@@H](c3cccc(OCCO)c3)N2C1=O, the relative growth is reported as inactive: 1.01.
O=c1nc[nH]c2ccccc12 was tested, and the relative growth was inactive: 1.01.
CCO[C@@H]1OC(C(=O)N2CCN(Cc3ccccc3)CC2)=C[C@H](c2ccc(Br)cc2)[C@H]1CCCOC(=O)NCCCCCC(=O)NO was tested, and the relative growth was inactive: 0.998.
For COc1ccc(S(=O)(=O)Nc2ccc3c(c2)CC(=O)N([C@@H](C)CO)C[C@@H](C)[C@H](CN(C)S(C)(=O)=O)O3)cc1, the relative growth was inactive: 1.03.
With C[C@@H]1CCCCO[C@H](CN(C)C(=O)c2ccccc2)[C@@H](C)CN([C@H](C)CO)C(=O)c2cc(NS(=O)(=O)c3ccc(Cl)cc3)ccc2O1 the relative growth was inactive: 0.986.
With O=[N+]([O-])c1ccc(O)c2ncccc12 the relative growth was active: 0.0542.
C[C@@H]1CCCCO[C@H](CN(C)C(=O)CCC(F)(F)F)[C@@H](C)CN([C@H](C)CO)C(=O)c2cc(NC(=O)CCC(F)(F)F)ccc2O1 was tested, and the relative growth was inactive: 0.954.
With C[C@@H]1CN([C@@H](C)CO)C(=O)Cc2cc(NC(=O)CCC(F)(F)F)ccc2O[C@@H]1CN(C)C(=O)Nc1cccc2ccccc12 the relative growth was inactive: 0.995.
With CCN(CC)CC(=O)Nc1c(C)cccc1C.Cl the relative growth was inactive: 1.03.
With O=C(NCC1CC1)c1cc2c(c(-c3cccc(-c4ccccc4F)c3)n1)[C@@H](CCO)N(C(=O)CC1CC1)C2 the relative growth was inactive: 1.04.
C[C@H](CO)N1C[C@H](C)[C@H](CN(C)C(=O)Nc2ccc(C(F)(F)F)cc2)OCCCC[C@H](C)Oc2ccc(NC(=O)c3ccncc3)cc2C1=O was tested, and the relative growth was inactive: 0.97.
With C[C@@H]1CCCCO[C@@H](CN(C)Cc2ccc(C(F)(F)F)cc2)[C@@H](C)CN([C@@H](C)CO)C(=O)c2cc(NC(=O)Nc3ccc4c(c3)OCO4)ccc2O1 the relative growth was inactive: 0.994.
For C[C@H](CO)N1C[C@H](C)[C@H](CN(C)C(=O)Nc2ccc(C(F)(F)F)cc2)Oc2c(NC(=O)Nc3ccc4c(c3)OCO4)cccc2C1=O, the relative growth was inactive: 0.986.
For Cc1cc(S(C)(=O)=O)c(S(C)(=O)=O)cc1C(=O)NC(=N)N, the relative growth was inactive: 1.02.
With O=C(C[C@H]1CC[C@H]2[C@@H](COC[C@@H](O)CN2C(=O)c2ccccc2F)O1)N1CCN(c2ccccc2)CC1 the relative growth was inactive: 0.969.
For C[C@H]1CN([C@@H](C)CO)C(=O)Cc2cc(NC(=O)Cc3ccccc3)ccc2O[C@H]1CN(C)S(=O)(=O)c1ccccc1, the relative growth was inactive: 1.01.
C[C@H](CO)N1C[C@H](C)[C@@H](CN(C)S(=O)(=O)c2ccccc2)Oc2ncc(C#CCN(C)C)cc2C1=O was tested, and the relative growth was inactive: 1.
In the case of Clc1ccc(/N=C/c2ccc(Br)o2)cc1Cl, the relative growth is reported as inactive: 1.01.
For COc1ccc2c3c([nH]c2c1)[C@H](CO)N(C[C@]13CCN(CC1)C(=O)c1ccncc1)C(=O)c1ccncc1, the relative growth was inactive: 1.01.
With CC(C)NC(=O)Nc1ccc2c(c1)C(=O)N([C@@H](C)CO)C[C@H](C)[C@@H](CN(C)C(=O)C1CCCCC1)OCCCC[C@H](C)O2 the relative growth was inactive: 1.01.
With C[C@H]1CN([C@@H](C)CO)C(=O)Cc2cc(NC(=O)Cc3cn(C)c4ccccc34)ccc2O[C@@H]1CN(C)Cc1ccc(Oc2ccccc2)cc1 the relative growth was inactive: 1.02.
CCCNC(=O)N1C[C@H](O)COC[C@H]2O[C@H](CC(=O)N3CCOCC3)CC[C@@H]21 was tested, and the relative growth was inactive: 1.
For Cc1c(-c2ccc(-c3ccc(Cl)c(Cl)c3)o2)nc(-c2ccccc2)c2c1CO[Si]2(C(C)C)C(C)C, the relative growth was inactive: 1.01.
In the case of C[C@H](CO)N1C[C@H](C)[C@@H](CN(C)Cc2ccc(C(F)(F)F)cc2)Oc2ccc(NC(=O)CCC(F)(F)F)cc2C1=O, the relative growth is reported as inactive: 1.01.
C[C@@H]1CN([C@H](C)CO)C(=O)c2cc(NC(=O)Cc3ccccc3)ccc2O[C@@H]1CN(C)S(=O)(=O)c1ccccc1 was tested, and the relative growth was inactive: 0.988.
In the case of Cc1cc(C(=O)Nc2cccc3c2O[C@H](CN(C)S(=O)(=O)c2ccc(Cl)cc2)[C@H](C)CN([C@H](C)CO)C3=O)n(C)n1, the relative growth is reported as inactive: 1.
In the case of C[C@@H]1CN([C@H](C)CO)C(=O)Cc2cc(NC(=O)Nc3ccc(C(F)(F)F)cc3)ccc2O[C@@H]1CN(C)C(=O)Nc1ccc(F)cc1, the relative growth is reported as inactive: 1.01.
With COc1ccc(S(=O)(=O)N(C)C[C@@H]2Oc3c(NC(=O)Nc4cccc5ccccc45)cccc3C(=O)N([C@H](C)CO)C[C@@H]2C)cc1 the relative growth was inactive: 1.06.
In the case of Cc1noc(C)c1NC(=O)N(C)C[C@@H]1OCCCC[C@@H](C)Oc2ccc(NC(=O)Nc3ccc(C(F)(F)F)cc3)cc2C(=O)N([C@H](C)CO)C[C@@H]1C, the relative growth is reported as inactive: 1.
Cc1ccc(S(=O)(=O)Nc2ccc3c(c2)C(=O)N([C@@H](C)CO)C[C@H](C)[C@@H](CN(C)Cc2ccc(Cl)c(Cl)c2)OCCCC[C@H](C)O3)cc1 was tested, and the relative growth was inactive: 0.971.
With CCCCC/C=C\C/C=C\C/C=C\CCCCC(=O)O the relative growth was inactive: 0.823.
